Assay results: PubChem BioAssay (NCI)
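Results reflect a 48-hour exposure of cells in 96-well plates to compound at five concentrations. GI50 marks 50% less growth.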 A number of entries come with more than one value. The list is limited to them. There may be further records. The tests behind the records often covered other concentration ranges, not given here; a value can be the end of its range.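 TGI is the concentration that stops growth completely.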

Experiments:
Test in all cases: inhibition of tumour cell growth, NCI panel, 48 h
OVCAR-3 ovarian = tested on: OVCAR-3 ovarian
DU-145 prostate = tested on: DU-145 prostate
MDA-MB-231 breast = tested on: MDA-MB-231 breast
T-47D breast = tested on: T-47D breast

Row | SMILES | GI50 (OVCAR-3 ovarian) | TGI (DU-145 prostate) | TGI (MDA-MB-231 breast) | TGI (T-47D breast)
1 | O=[N+]([O-])c1ccc(NC(=S)N/N=C(\c2ccccc2)c2ccccn2)cc1 | 8.11 nM and 1.43 µM |  |  | 
2 | CCCC(=O)Nc1cc(/C=C/C(=O)N2C[C@H]3C[C@@]34C2=CC(=O)c2[nH]cc(C)c24)n(C)c1 |  | < 2.5 nM and 1.91 µM | 3.68 nM and 130 nM | 8.24 nM and 480 nM
